The whole screen tested about 110,000 compounds, of which about 230 (0.21%) showed an effect of 50% or more. The list shows a part of the results.
Each compound was assayed against DPAP1 (Plasmodium falciparum, UniProt Q8IIJ9) (assay: primary screen, percent inhibition; read by cleavage of a fluorogenic dipeptide substrate; higher = more effect of the substance).
DPAP1, sequence (Q8IIJ9 whole entry, looked up): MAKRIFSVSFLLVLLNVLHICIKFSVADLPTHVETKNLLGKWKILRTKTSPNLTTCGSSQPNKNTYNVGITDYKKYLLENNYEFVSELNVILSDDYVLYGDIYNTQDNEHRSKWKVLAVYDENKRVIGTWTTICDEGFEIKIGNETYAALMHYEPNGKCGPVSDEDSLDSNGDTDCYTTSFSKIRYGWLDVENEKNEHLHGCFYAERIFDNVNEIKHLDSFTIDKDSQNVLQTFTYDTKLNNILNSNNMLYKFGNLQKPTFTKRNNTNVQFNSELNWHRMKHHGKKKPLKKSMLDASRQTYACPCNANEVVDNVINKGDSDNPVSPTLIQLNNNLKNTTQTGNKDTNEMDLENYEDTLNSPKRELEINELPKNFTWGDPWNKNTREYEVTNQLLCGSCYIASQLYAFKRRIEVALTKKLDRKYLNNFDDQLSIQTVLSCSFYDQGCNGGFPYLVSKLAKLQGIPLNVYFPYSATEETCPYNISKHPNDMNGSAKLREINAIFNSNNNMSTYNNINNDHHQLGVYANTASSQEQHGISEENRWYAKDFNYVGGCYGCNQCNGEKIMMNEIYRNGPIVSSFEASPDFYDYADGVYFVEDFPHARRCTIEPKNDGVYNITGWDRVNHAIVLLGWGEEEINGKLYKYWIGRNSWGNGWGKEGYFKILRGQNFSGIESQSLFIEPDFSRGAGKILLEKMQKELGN
Parameters: species or system P. falciparum D10 trophozoite lysates; single well
O=C(O)c1ccccc1SC1CC(=O)N(c2ccccc2C(F)(F)F)C1=O (stereo not shown) was tested, and the “% Inhibition @ 10 uM” value was 1.34%. With N#CC1=C(N)Oc2c(c(=O)oc3ccccc23)C1c1cccc(Cl)c1 (stereo not shown) the “% Inhibition @ 10 uM” value was -2.51%. In the case of Cc1nc2nc(C)c(CCC(=O)N3CCN(Cc4ccccc4)CC3)c(C)n2n1, the “% Inhibition @ 10 uM” value is reported as -6.03%. With Cc1nc2sc(C(=O)NC3CCCCC3)c(N)c2c(C)c1Cl the “% Inhibition @ 10 uM” value was -4.04%. In the case of CN(c1cccc(NC(=O)CN(c2cccc(Br)c2)S(C)(=O)=O)c1)S(C)(=O)=O, the “% Inhibition @ 10 uM” value is reported as 3.75%. In the case of O=c1cccc2n1CC1CC2CN(S(=O)(=O)c2ccc3nc(O)ccc3c2)C1 (stereo not shown), the “% Inhibition @ 10 uM” value is reported as -0.0401%. With Cc1ccc(NS(=O)(=O)c2c(C)nc3sccn3c2=O)nc1 the “% Inhibition @ 10 uM” value was -2.55%. In the case of CCOc1ccc(-c2nonc2NC(=O)c2ccccc2C)cc1OCC, the “% Inhibition @ 10 uM” value is reported as -1.47%. With COc1ccc(C(=O)C2=C(O)C(=O)N(CCc3ccccc3)C2c2ccc(F)cc2)cc1 (stereo not shown) the “% Inhibition @ 10 uM” value was -7.98%. CCOc1cc(C2CC(=O)Nc3nc(SCc4cccc(C)c4)nc(O)c32)ccc1O (stereo not shown) was tested, and the “% Inhibition @ 10 uM” value was 2.25%. In the case of COc1ccccc1NC(=O)c1c(Cl)c(C)nn1C, the “% Inhibition @ 10 uM” value is reported as -6.36%. For CN(C)CCNC(=O)C1CCN(c2nn3cc(-c4ccc(F)cc4)nc3s2)CC1, the “% Inhibition @ 10 uM” value was -5.54%. CC1=C(C(=O)Nc2ccccc2)C(c2cccs2)C(C#N)=C(SCC(=O)c2ccc(-c3ccccc3)cc2)N1 (stereo not shown) was tested, and the “% Inhibition @ 10 uM” value was -0.582%. In the case of CC(NC(=O)C(=O)NCc1ccc(F)cc1)C(c1cccs1)N1CCOCC1 (stereo not shown), the “% Inhibition @ 10 uM” value is reported as -1.08%. CC12CN3CC(C)(CN(C1)C3c1ccccn1)C2=O (stereo not shown) was tested, and the “% Inhibition @ 10 uM” value was 3.27%. COc1ccccc1CNC(=O)C1CCCN(S(=O)(=O)c2cccc3nonc23)C1 (stereo not shown) was tested, and the “% Inhibition @ 10 uM” value was -5.88%. With C=CCOc1ccc(CNCc2cccs2)cc1 the “% Inhibition @ 10 uM” value was 0.324%. O=C(NCc1ccc(F)cc1)c1cnc2ccc(S(=O)(=O)N3CCOCC3)cc2c1O was tested, and the “% Inhibition @ 10 uM” value was 1.88%. With O=C(Nc1ccc(Cl)cc1C(=O)NCCCCO)c1ccc(Cl)cc1Cl the “% Inhibition @ 10 uM” value was -1.82%. With CCN1CCC2(CC1)OC(=O)C(C)=C2C(=O)NCCC1=CCCCC1 the “% Inhibition @ 10 uM” value was -4.38%. With COc1ccc(C2OCC(C)(C)CO2)cc1Br the “% Inhibition @ 10 uM” value was -1.61%. For O=S(=O)(c1ccc(Cl)nc1)N1CCCCC1, the “% Inhibition @ 10 uM” value was 3.93%. For COc1ccc(C(=O)Nc2nc(-c3ccc(S(=O)(=O)N4CCCCCC4)cc3)cs2)cc1, the “% Inhibition @ 10 uM” value was 1.88%. In the case of C/C(=C\S(=O)(=O)c1ccc(C)cc1)NCc1ccccc1, the “% Inhibition @ 10 uM” value is reported as -0.984%. In the case of CCCn1c2ccccc2c2cnn(CC(=O)N(CCN(C)C)Cc3ccco3)c(=O)c21, the “% Inhibition @ 10 uM” value is reported as 4.39%. With CCO/C(O)=C/C1=NC(C)(C)Cc2cc(OC)c(O)cc21 the “% Inhibition @ 10 uM” value was 0.273%. In the case of COc1ccc(C2C(C#N)=C(N)Oc3cc(C)n(Cc4ccccn4)c(=O)c32)c(OC)c1OC (stereo not shown), the “% Inhibition @ 10 uM” value is reported as -4.78%. CCOC(=O)C1=CN(C)C=C(C(=O)OCC)C1c1ccc(OC)c(OC)c1 was tested, and the “% Inhibition @ 10 uM” value was 6.48%. For CCOC(=O)C1=C(C)N(CCOC)C(=O)/C1=C\c1ccc(C(=O)OC)cc1, the “% Inhibition @ 10 uM” value was 1.81%. For Clc1cccc(CN2CCN(c3cccc(Cl)c3)CC2)c1, the “% Inhibition @ 10 uM” value was -0.294%. With CCc1ccc(S(=O)(=O)c2nnn3c2nc(N)c2cc(Cl)ccc23)cc1 the “% Inhibition @ 10 uM” value was 0.291%. Cc1nnc(NC(=O)COc2ccc(C(C)C)c(C)c2)s1 was tested, and the “% Inhibition @ 10 uM” value was 0.484%. CC(C)CCNC(=O)C1CCCN(S(=O)(=O)N2CC(C)CC(C)C2)C1 (stereo not shown) was tested, and the “% Inhibition @ 10 uM” value was 0.514%. CC(=O)c1ccc(N2CCN(C/C=C/c3ccccc3)CC2)cc1 was tested, and the “% Inhibition @ 10 uM” value was 1.9%. For COc1cc(OC)cc(C(=O)Nc2nc(-c3nnn(-c4ccc(C)c(Cl)c4)c3C)ns2)c1, the “% Inhibition @ 10 uM” value was -5.67%. O=C(Nc1nc(COc2ccccc2)cs1)C1CCC1 was tested, and the “% Inhibition @ 10 uM” value was 4.31%. For CN1CCN(C(=O)CCc2ccc(S(=O)(=O)NC3CCCCC3)cc2)CC1, the “% Inhibition @ 10 uM” value was 3.53%. For COc1ccc(CCn2c(C)c3c(C)nnc(C)c3c2C)cc1OC, the “% Inhibition @ 10 uM” value was -2.75%. With O=C(c1ccco1)N1CCC(c2c[nH]c3ccccc23)(c2c[nH]c3ccccc23)CC1 the “% Inhibition @ 10 uM” value was -0.637%. COCCn1c(=N)c(C(=O)NCCN2CCOCC2)cc2c(=O)n3cc(C)ccc3nc21 was tested, and the “% Inhibition @ 10 uM” value was -5.14%. CCCCNC(=O)Cn1c(=S)[nH]c2c([nH]c3ccc(OC)cc32)c1=O was tested, and the “% Inhibition @ 10 uM” value was 1.15%. With O=C(/C=C/c1ccc(F)cc1)N1CCN(c2ccc(Cl)cc2)CC1 the “% Inhibition @ 10 uM” value was 3.76%. With COc1cc(OC)c(NC(=O)c2ccc([N+](=O)[O-])cc2)cc1Cl the “% Inhibition @ 10 uM” value was 4.89%. In the case of COc1cc(C2SCC(C(=O)O)N2C(C)=O)cc(OC)c1O (stereo not shown), the “% Inhibition @ 10 uM” value is reported as 1.27%. For Cc1cc(/C=C2\C(=N)N3N=C(S(C)(=O)=O)SC3=NC2=O)c(C)n1Cc1ccccc1, the “% Inhibition @ 10 uM” value was 3.53%. In the case of CC1CCCN(C(=O)C2CCC(C/N=c3/c(N4CCCCC4)c(O)c3=O)CC2)C1 (stereo not shown), the “% Inhibition @ 10 uM” value is reported as 2.84%. For Cc1ccc(N2C(=O)CCSC23C(=O)Nc2ccccc23)cc1 (stereo not shown), the “% Inhibition @ 10 uM” value was 4.03%. For CCN1C(=O)C(O)(CC(=O)c2ccc(OC)cc2OC)c2ccccc21 (stereo not shown), the “% Inhibition @ 10 uM” value was -3.39%. With COc1cc(CN2CCN(Cc3ccccc3F)CC2)cc(OC)c1OC the “% Inhibition @ 10 uM” value was 2.39%. With Cc1cccc(C)c1OCC(O)CN1CCc2ccccc2C1 (stereo not shown) the “% Inhibition @ 10 uM” value was -0.564%. COCCNC(=O)Cn1nc(C)n2cccc2c1=O was tested, and the “% Inhibition @ 10 uM” value was -10.2%. CCCc1nc2c3ccccc3nc(O)n2n1 was tested, and the “% Inhibition @ 10 uM” value was 2.97%. In the case of O=C(O)CCCNCc1ccc(Cl)cc1, the “% Inhibition @ 10 uM” value is reported as -0.256%. For CC1(C)CC2=Nc3nc(SCc4ccccc4F)nn3C(c3ccncc3)C2=C(O)C1 (stereo not shown), the “% Inhibition @ 10 uM” value was 0.457%. In the case of Cc1ccc(C)c(NC(=O)c2sc(Cl)nc2C)c1, the “% Inhibition @ 10 uM” value is reported as 3.24%. In the case of COc1ccc(CNC(=O)CCc2c(C)c3ccc(O)c(C)c3oc2=O)cc1OC, the “% Inhibition @ 10 uM” value is reported as -2.57%. For CC(C)(C)NC(=O)Cn1c(=O)[nH]c2ccsc2c1=O, the “% Inhibition @ 10 uM” value was -3.23%. In the case of OCC1CCCN(Cc2ccc3ccccc3c2)C1 (stereo not shown), the “% Inhibition @ 10 uM” value is reported as -3.27%. For CCO/C(O)=C1\C(CC)=NC2=C(C(=O)CCC2)C1c1ccc(Cl)cc1Cl (stereo not shown), the “% Inhibition @ 10 uM” value was 1.13%. COc1cc([C@@H]2[C@H]3CN(C)CC=C3C(C#N)=C(N)C2(C#N)C#N)ccc1OC(C)C was tested, and the “% Inhibition @ 10 uM” value was 21.8%. With CN(CCNC(=O)c1ccc(CS(=O)(=O)Cc2ccc(Cl)cc2)o1)Cc1ccccc1 the “% Inhibition @ 10 uM” value was 0.387%.
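Further: 30 min substrate incubation versus DMSO and 10 µM JCP410 controls.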
